# Measurements from ChEMBL document CHEMBL4888484, “Replenishing the malaria drug discovery pipeline: Screening and hit evaluation of the MMV Hit Generation Library 1 (HGL1) against asexual blood stage Plasmodium falciparum ,using a nano luciferase reporter read-out” (2022).
# Among all 150,000 compounds or so, about 540 (0.36%) showed an effect of 50% or more. This is one part of the list.
# Tested on: Plasmodium falciparum
# Experiment: Primary screen in NF54 nanoGlo assay, in single point, at 2uM, 72h; a lower Z score goes with more inhibition
# Format: functional, Erythrocyte
# Conditions: timepoint 72 hour
Structure (SMILES),% Inhibition [%],Z score
COCC(COC)N1CCN(C(=O)[C@@H]2Cc3c(C)cccc3O2)CC1,-16,2.17
Cc1nnc(C(C)N2CCCC2Cn2cccn2)o1 (stereo not drawn),-18,2.07
CCOc1ccc(NC(=O)NC(C)(C)c2cn(-c3ccccc3)nn2)cn1,-2,0.25
O=C(N1CC[C@H]1C1CCCC1)C12CC(C(F)(F)F)(C1)C2,-3,0.57
Cc1cc([C@@H](C#N)c2ccc(Cl)cc2)c(Cl)cc1NC(=O)CS(=O)(=O)c1ccccc1,-1,0.15
Oc1cc(CNCCc2cnccn2)nc2c(F)cccc12,-8,0.97
Cc1cc(CNC(=O)c2ccc(-c3ccco3)[nH]c2=O)no1,-8,1.02
COCCNC(=O)NCC(C)(C)c1ccsc1,-3,0.63
Cn1nc(C(=O)N2CC(n3cc(-c4ccccc4)nn3)C2)ccc1=O,-15,2.6
COc1cc(CN2C(C)CC(O)CC2C)sn1 (stereo not drawn),-7,1.4
Cc1nc(C)n(C2CN(S(=O)(=O)CC[C@H]3C[C@@H]3C3CC3)C2)n1,-3,0.39
C=CCc1cc(C(=O)N[C@H](C(=O)O)C2CC2)ccc1OC,-12,1.49
CC(C)(C)CC(=O)N1CCC[C@H]1C(=O)N[C@H]1CC[C@H](NC(=O)c2ccccc2)CC1,-3,0.3
COCCN1C[C@@H](C(=O)N2CCN(c3ncccn3)CC2)CCC1=O,-11,1.42
COc1ccc(C2Nc3ccc(C)cc3[C@H]3OCC[C@@H]23)cc1 (stereo partly drawn),-3,0.48
CC(C)(C)NC(=O)N(CC(=O)N1CCn2cccc2[C@H]1c1ccc(Cl)cc1)C1CC1,-7,0.92
O=C1[C@@H]2C[C@H](F)CN2C(=O)N1CCc1cscn1,5,-0.52
CCN(CC)CCOC(=O)c1cccc(C)c1N,2,-0.24
CCOc1ccc(CNC(=O)c2nc(-c3oc4ccc(C)cc4c3C)no2)cc1OC,-9,1.33
Cc1cnc(C(=O)NC2CCC3(CC2)COC3)c(C)c1,3,-0.49
CCC(C)C(=O)NCc1csc(NC(=O)C(C)CC)n1 (stereo not drawn),-1,0.18
COC(=O)[C@]1(F)CCN(C(=O)c2n[nH]c3ccccc23)C1,-4,0.31
Cc1cccc(CN2[C@H](CNC(=O)c3ccncc3F)CN(C)C(=O)[C@@H]2C)c1,-9,1.28
Cc1onc(C(=O)N2CC[C@H]3[C@H](CCC(=O)N3CC(C)C)C2)c1CO,-2,0.34
CCOc1cc(CNC(=O)[C@H]2CCCN(C(=O)c3ccccc3Cl)C2)cc(OCC)c1OCC,-6,1.03
CCN(Cc1cccc(C)c1)CN1C(=O)N[C@@]2(CCCCc3ccccc32)C1=O,-8,1.13
Cc1csc(NC(=O)CC[C@H]2CCCO2)n1,-8,1.19

Structure (SMILES),% Inhibition [%],Z score
O=C(NCCc1cccs1)C1CCN(S(=O)(=O)N2CCCC2)CC1,-18,3.4
Cc1ccccc1OCC(=O)Nc1ccc(C(=O)N2CCCCC2)cc1,-12,1.1
CCC1(CC)CN(Cc2nc(C)c(C)n2C)CCO1,0,0.01
Cc1nccc(N2CC[C@@H](C)O[C@@H](C)C2)n1,10,-1.26
OC[C@@H]1CCCN1Cc1ncc(-c2ccccc2)s1,-2,0.17
COc1ccccc1N1CCN(C(=O)CN2C(=O)CCc3cc(Br)ccc32)CC1,-1,0.09
CC(C)(C)n1ncc2c(=O)[nH]c(NCC3CCCC(O)C3)nc21 (stereo not drawn),-11,1.34
Cc1ccc(N2CCN(CC(=O)N3CCN(c4ccccc4O)CC3)C2=O)cc1,-11,1.24
CC1CCN(C(=O)CN2C(=O)COc3ccc(S(=O)(=O)N4CCOCC4)cc32)CC1,3,-0.27
CC[C@H](NC(=O)Cc1c(C)n[nH]c1C)C1CC(O)C1 (stereo partly drawn),3,-0.29
CN(C(=O)[C@@H]1CCn2c(C(=O)c3ccccc3)ccc21)C1CCCCC1,-15,1.79
Cc1cc(-c2cc(-c3c(C)nn(CC(=O)O)c3C)nc(N)c2C#N)oc1C,-10,1.82
COc1ccc(-c2cnn(C[C@H]3CCOC3)c2)c(CO)c1,-10,1.74
CCc1nnsc1C(=O)Nc1ccc(N2CCNC(=O)C2)nc1,-1,0.28
Cn1ncnc1CNC(=O)C[C@H](O)c1cc(Cl)cc(Cl)c1,-2,0.27
COCCc1ccccc1NCc1nc(-c2cccs2)n[nH]1,-12,1.71
Cc1ccc(CNC(=O)N2CCCCCCNC(=O)[C@@H]3C[C@@H](C(=O)NCCc4c[nH]cn4)C[C@@H]32)cc1,-13,1.69
CC[C@H](NC(=O)N1CCC(O)(C(N)=O)CC1)c1ccccc1F,-8,1.04
Cc1cc(C(=O)NCc2ccc(-c3ccnn3C)nc2)n(C)n1,-2,0.24
CCCC(=O)N1CCCN(C2=NS(=O)(=O)C(c3ccc(C)cc3)=C2C)CC1,-6,1.14
CCc1occc1C(=O)N(CC(C)(C)O)C1CC1,10,-1.36
Cc1[nH]ccc1C(=O)NCCc1cn(C)cn1,-16,3.26
CNC(=O)CN1c2ccccc2C(=O)N(C)[C@@H]1c1occc1C,0,0.06
Cc1ccc(N2CCc3c(cccc3NCc3cncn3C)C2)nn1,-5,0.45
O=S(=O)(c1ccccc1)N1CC[C@H](Cc2nnc(-c3cccnc3)[nH]2)C1,-12,2.09
COCCN1CCC(CN2C[C@@](C)(c3ccccc3)CCC2=O)CC1,3,-0.45
CC(C)CNC(=O)N1CC[C@H](Nc2cccnc2)C1,-13,1.65
